From PubChem BioAssay AID1963576 (National Center for Advancing Translational Sciences (NCATS), 2024)
Out of some 46,000 compounds screened, about 60 (0.1%) were called active. Roughly 3% stayed inconclusive and do not appear here. The call rests on the fitted dose curve; in most records, active means well fitted inhibition curve with a large enough effect; inconclusive means small, poorly fitted or top-dose-only effect; inactive means no such curve, though single readings can be large or run the other way. The list shows a part of the results.

Assay: Primary qHTS assay for Inhibitors of ovarian cancer metastasis using an organotypic tumor microenvironment (TME) model. Further: nearly all actives have a fitted effect of over 65% in size.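 On activity change, negative = inhibition: plate controls were DMSO wells for no effect and tomatine positive control wells for full effect.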
Settings: SKOV3ip1-GFP adhesion/invasion on 3D omental model, fluorescence; series mostly up to 45.8 µM; activity change, negative = inhibition: at the top concentration
Summary of the method: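 Primary human omental fibroblast/mesothelial 3D culture pre-formed 48 h. SKOV3ip1-GFP cells added with compounds (0.36-46 umol/L), incubated 2 h RT/16 h 37 C, fixed; GFP cells quantified at 488/509 nm.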

outcome, inactive:
COCCCNC(=O)C1CCC(CNS(=O)(=O)c2ccc(OC)cc2)CC1 (stereo not given)
CCCCOC(=O)c1ccc(NC(=O)CC2NCCNC2=O)cc1 (stereo not given)
CCOC(=O)c1ccc(NC(=O)c2nc(SC(C)C)ncc2Cl)cc1
O=C(Cn1cnc2onc(-c3ccc(F)cc3)c2c1=O)Nc1cccc(C(F)(F)F)c1
CS(=O)(=O)N(CC(=O)NCCSCc1ccccc1)c1cc(C(F)(F)F)ccc1Cl
COc1ccc(CCCc2nnc(SCC(=O)Nc3ccc(F)cc3)o2)cc1C
CSCCC(NS(=O)(=O)c1ccc2c(c1)oc(=O)n2C)C(=O)NCc1ccccc1 (stereo not given)
COc1ccc2c(c1)c1c(c(=O)n(Cc3ccccc3)c(=O)n1CC(=O)NCc1ccc(C)cc1)n2C
Cc1cc(C)cc(NC(=O)c2oc3ccc4c(c3c2C)C(=O)CC(C)(C)O4)c1
Cc1nn(CC(=O)N2CCC(C)CC2)c(=O)c2cc3occc3n12
Cc1ccc(-c2ccc(=O)n(CC(=O)Nc3ccc(C(C)C)cc3)n2)cc1
COc1cccc(NC(=O)CSc2nc3c([nH]c4ccccc43)c(=O)n2-c2cccc(Cl)c2)c1
O=C(Nc1ccc(F)c(Cl)c1)C1Cc2ccccc2CN1S(=O)(=O)c1ccc(F)cc1 (stereo not given)
CCc1cccc(CC)c1N(COC)C(=O)Cn1c(C)nc2ccccc21
CCCCn1c(SCC(=O)Nc2cccc(OC)c2)nc2ccsc2c1=O
COc1ccc(NC(=O)C2CCC(CNS(=O)(=O)c3csc(C(N)=O)c3)CC2)cc1 (stereo not given)
CCOC(=O)c1c(NC(=O)COc2cccc(C)c2C)sc2c1CCCCC2
COc1ccc(-c2cn3nc(N4CCC(C(=O)NCc5ccc(F)cc5)CC4)sc3n2)cc1
COC(=O)c1cc2sc(C)cc2n1Cc1ccccc1
CCOc1ccc(CCNC(=O)CN2C(=O)c3cccnc3Oc3ccc(C)cc32)cc1OCC

Activity change, negative = inhibition, inactive:
CCOc1ccc(CNC(=O)Cn2ccc3cc(S(=O)(=O)N4CCCCCC4)ccc32)cc1 5.44%
COc1ccc(-n2cc(C(=O)Nc3cc(F)ccc3F)c3ccccc3c2=O)cc1 -4.91%
O=C(Nc1ccc(F)cc1F)c1ccc2c(c1)CCN2S(=O)(=O)c1ccc(Cl)cc1 2.94%
CCOC(=O)c1cc2c(=O)n3ccccc3nc2n(C)c1=NC(=O)c1c(-c2ccccc2Cl)noc1C 0.974%
Cc1ccc(NC(=O)Cn2c(=O)ccc3cc(S(=O)(=O)N4CCC(C)CC4)ccc32)c(C)c1 8.48%
COc1cc(-c2cc3n(C)c(C)c(CCC(=O)NCc4ccccc4)c(=O)n3n2)cc(OC)c1OC -4.9%
COc1ccc2oc(=O)c(C(=O)Nc3cccc(C(=O)O)c3)cc2c1 5.96%
COc1cccc(CNC(=O)C2CCN(Cc3cc4ccccc4n3Cc3ccc(C)cc3)CC2)c1 -8.55%
COc1ccc(NC(=O)CC2C(=O)N(c3ccccc3)C(=O)N2C2CCCCC2)cc1 (stereo not given) 60.3%
COc1ccccc1CNC(=O)c1cc2cccc3c2n1CC(C)S3 (stereo not given) -12.1%
CCOC(=O)c1nnn(CC(=O)Nc2cc(C)cc(C)c2)c1C(=O)OCC 3.5%
COc1ccc(CCNS(=O)(=O)c2ccc(N3CCCCS3(=O)=O)cc2)cc1OC 4.12%
Cc1nc2c(-c3ccccc3)c(C)nn2c(C)c1CCC(=O)NCc1ccc(Cl)cc1 -3.56%
Cc1ccc(CNC(=O)CCCN2C(=O)CCn3nc(-c4cn(C)c5ccccc45)cc32)cc1 3.31%
Cc1ccc(Cn2c(CCCNC(=O)c3ccco3)nc3ccccc32)cc1 9.9%
CCc1ccc(NC(=O)N2c3ccccc3Sc3ccccc32)cc1 -5.01%
CCN(Cc1ccccc1)S(=O)(=O)c1ccc2c(c1)CCCN2C(C)=O 1.1%
Cc1ccc(C)c(Cn2cnc3c(cnn3-c3ccc(F)cc3)c2=O)c1 14.6%
Cc1ccc(-c2c(C(=O)NCc3ccc(F)cc3)oc(=O)c3ccccc23)cc1 56.5%
CC1CCN(C(=O)CN2c3ccc(C(C)C)cc3-c3ccccc3S2(=O)=O)CC1 -14.3%
Cc1cc(-c2ccccc2)n2nc(-c3cccc(Br)c3)cc2n1 -8.08%
Cc1ccc2cccc(NC(=O)c3ccc(-c4cccc(Cl)c4Cl)o3)c2n1 12.1%
Cc1ccccc1NC(=O)Cn1c(=O)n(Cc2ccc3c(c2)OCO3)c(=O)c2ccc(C(=O)NC3CCCCC3)cc21 -1.31%
CC(=O)c1cccc(NC(=O)c2oc(=O)c3ccccc3c2-c2ccccc2)c1 -5.29%
CC(C)CN(CCNC(=O)c1cn(C)c2ccc(S(=O)(=O)N3CCOCC3)cc2c1=O)CC(C)C -5.77%
COc1ccc(N2CCN(C(=O)CCC(=O)NNc3nc4ccccc4c4nc(C)nn34)CC2)cc1 1.5%
Cc1ccc(C)c(N2CCN(C(=O)c3ccc(Nc4nc5ccccc5n5nnnc45)cc3)CC2)c1 12.7%
CCC(=O)N1CCc2cc(S(=O)(=O)CCC(=O)N3CCN(c4cccc(Cl)c4)CC3)ccc21 -13.6%
CSc1ccc(C(=O)Nc2ccc(-c3nc4ccccc4s3)c(O)c2)cc1 -17.9%
O=C(NCc1ccc(F)cc1)C1CCCCN1S(=O)(=O)c1ccc(F)cc1 (stereo not given) 0.469%
COc1cc(OC)c(NC(=O)Cn2c(=O)cc(C)c3c(C)nn(-c4ccc(C)cc4)c32)cc1Cl 0.987%
CSc1ccc(-c2nc3c(C)cccn3c2Nc2ccc3c(c2)OCCO3)cc1 -3.74%
CCc1ccc(NC(=O)c2ccc3nc(C(C)C)oc3c2)cc1 2.8%
CCOC(=O)c1cc(C)n(CC2CCC(C(=O)Nc3ccc(C)cc3)CC2)c1C (stereo not given) -7.78%
Cc1ccc(OCc2nnc(SCC(=O)Nc3ccccc3C(C)C)o2)cc1 7.01%
COC(=O)Cn1ccc2cc(S(=O)(=O)N3CCCCCC3)ccc21 0.81%
CCC1CCc2nc3sc(C(=O)Nc4ccc(C)cc4C)c(N)c3cc2C1 (stereo not given) 34.1%
CCNC(=O)c1ccc(CSc2nc3cccnc3n2Cc2ccc(OC)cc2)cc1 1.9%
CCOC(=O)N1CCC2(CC1)OC(=O)C(C)=C2C(=O)NCc1ccc(C)cc1 -12%
Cc1cccc(-c2nc(CN3CCCC(C(=O)NCc4ccc(Cl)cc4)C3)c(C)o2)c1 (stereo not given) 3.13%
COC(=O)c1ccc(NC(=O)Cn2c(-c3nonc3N)nc3ccccc32)cc1 3.41%
CCc1nn(-c2ccccc2)c2nc(-c3ccc(O)cc3)c3cc(OC)c(OC)cc3c12 2.14%
CCCc1cnc2c(c1SCC(=O)Nc1c(C)cc(C)cc1C)c(=O)n(C)c(=O)n2C 10.6%
CCN(C(=O)CN1C(=O)COc2ccc(S(=O)(=O)N3CCOCC3)cc21)c1cccc(C)c1 -7.54%
O=C(NCCc1csc(-c2cccc(F)c2)n1)c1ccccc1C(F)(F)F 3.08%
C=CCOc1ccc(C2c3c(oc4ccc(C)cc4c3=O)C(=O)N2CCCN2CCOCC2)cc1 (stereo not given) 32.9%
CCOC(=O)c1ccc(NC(=O)CSc2nc(C)c(Cc3ccccc3)c(=O)[nH]2)cc1 -4.22%
Cc1ccc(Cn2ccn(Cc3cccc(C(F)(F)F)c3)c(=O)c2=O)cc1 12.5%
CCc1nn(CC(=O)Nc2ccc(C)cc2C)c(=O)c2cc3sccc3n12 3.58%
Cc1ccc(-n2nc(C)c3c(C)cc(=O)n(CC(=O)NC(C)C)c32)cc1 1.51%
CCN(CC)CCOC(=O)c1ccc(NC(=O)CSc2cc(=O)n(CC)c3ccccc23)cc1 -5.64%
COc1ccccc1NC(=O)c1c(C)cc(C)nc1SCC(=O)Nc1cccc(C)c1 -14.6%
COCCNC(=O)CCn1c(=O)c2cc(OC)c(OC)cc2n(CC(=O)Nc2ccccc2OC)c1=O -13.4%
O=C(NCc1ccccc1)c1ccc(NC(=O)N2CCSc3ncccc32)cc1 -3.58%
COc1ccc(-n2cc(-c3ccccc3)c3c(NCc4cccc(Cl)c4)ncnc32)cc1 4.34%
COc1cc(OC)c(NC(=O)c2cnn(-c3cccc(Cl)c3C)c2C2CCN(C(=O)OC(C)(C)C)CC2)cc1Cl -20.1%
Cc1ccc(NC(=O)c2cn(-c3ccccc3)nc2-c2ccccc2)cc1 -5.65%
COc1ccc(Nc2ncnc3onc(-c4ccc(Cl)cc4)c23)cc1Cl -21.2%
CC(C)c1ccc(Nc2c(-c3ccc(N4CCOCC4)cc3)nc3ncccn23)cc1 -2.29%
Cc1ccc(C2=NN(CC(=O)NC(C)c3ccccc3)C(=O)CC2)cc1 (stereo not given) 3.62%
Cc1ccc(CNC(=O)CSc2ccc(-c3sc(-c4ccccc4)nc3C)nn2)cc1 -12.8%
CCCOC(=O)c1ccc(NC(=O)Cn2nnc3sc4c(c3c2=O)CCC(C(C)(C)C)C4)cc1 (stereo not given) 2.4%
CCOC(=O)CNC(=O)c1cc2c(=O)n(CC)c3ccccc3c2s1 -8.56%
Cc1ccc(CSc2oc(-c3ccco3)nc2S(=O)(=O)c2ccc(Cl)cc2)cc1 -6.08%
CCOC(=O)c1cccc(NC(=O)c2cc(S(=O)(=O)N3CCCC3)cn2C)c1 8.05%
COc1ccc(-c2onc(C)c2C)cc1S(=O)(=O)Nc1ccc(OC(F)(F)F)cc1 5.35%
O=C(Nc1cccc(C(F)(F)F)c1)c1cc2nc(-c3ccccc3)cc(C(F)(F)F)n2n1 0.0477%
CCCOc1ccc(-c2cccc(NS(=O)(=O)c3cccs3)c2)nn1 0.163%
COc1ccc(NC(=O)c2ccco2)cc1NC(=O)C(C)Oc1ccc(Cl)cc1Cl (stereo not given) 58.7%
COc1cccc(CNS(=O)(=O)c2c(C)nc3scc(C)n3c2=O)c1 -0.998%
CCCOc1ccc(/C=C/C(=O)Nc2sc3c(c2C(=O)OCC)CCC(C)C3)cc1OC (stereo not given) -3.45%
CC(=O)c1cc(-c2ccc(F)cc2)n(CC(=O)NC2CCCCCC2)c1C -19.8%
O=S(=O)(c1ccc(Br)cc1)c1nc(-c2ccco2)oc1SCc1ccccc1F 12.5%
COc1ccc(-c2cccc(NS(=O)(=O)c3cccs3)c2)nn1 -8.49%
Clc1ccc(N2CCN(Cc3nnc(-c4ccc5c(c4)OCO5)o3)CC2)cc1 3.31%
